In PubChem BioAssay AID588795 (National Center for Advancing Translational Sciences (NCATS), 2011):
Among all 390,000 compounds or so, about 1,400 (0.36%) were called active. Inconclusive means that the source gave no clear call. Such entries were picked first, then a sample of the others. Calls follow the shape of the dose curve; as a rule, active = well fitted inhibition curve with a large enough effect; inconclusive = small, poorly fitted or top-dose-only effect; inactive = no such curve, though single readings can be large or run the other way. Potencies of inconclusive entries are doubtful fits and often do not repeat.
Also: nearly all actives have a fitted effect of over 65% in size.
Potency is read from the fitted curve at half-maximal effect; tags tell the direction and shape of the fitted curve.

These molecules were tested against Flap endonuclease 1 (Homo sapiens) (UniProt P39748) (assay: qHTS Assay for the Inhibitors of Human Flap endonuclease 1 (FEN1).). Details: Recombinant FEN1 flap cleavage, fluorescence, 15 min; series mostly up to 114 µM.
UniProt P39748, sequence (P39748 whole entry, looked up): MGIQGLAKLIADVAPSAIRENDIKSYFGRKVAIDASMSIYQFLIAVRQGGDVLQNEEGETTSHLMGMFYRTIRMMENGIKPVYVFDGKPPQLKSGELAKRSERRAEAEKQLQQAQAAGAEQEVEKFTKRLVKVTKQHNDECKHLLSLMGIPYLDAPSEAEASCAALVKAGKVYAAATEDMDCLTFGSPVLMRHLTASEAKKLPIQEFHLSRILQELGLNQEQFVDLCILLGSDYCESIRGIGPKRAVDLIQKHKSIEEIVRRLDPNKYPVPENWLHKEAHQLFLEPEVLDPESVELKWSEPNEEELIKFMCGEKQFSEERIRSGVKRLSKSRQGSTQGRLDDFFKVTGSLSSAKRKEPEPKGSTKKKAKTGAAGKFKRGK
How it was run: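 Compounds are tested as a concentration series against 10 nM FEN1; after a 15 min room-temperature preincubation, 50 nM substrate starts cleavage, with plate reads at 0 and 15 min. Normalized responses are fitted by a Hill equation.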
For `COc1cc(C)c(C(=O)Oc2cc(C)c(C(=O)O)c(O)c2)c(O)c1`, the Potency was inconclusive: 44.7 µM [inhibitor, partial curve, poor fit]. With `CCCC[C@@H]1C[C@H]1[C@@H](NC(=O)c1cccs1)c1ccc(Cl)cc1` the Potency was inconclusive: 89.1 µM [inhibitor, partial curve, poor fit]. For `CCN(c1ccc(NS(=O)(=O)c2cc(Cl)ccc2Cl)cc1)C(C)C`, the Potency was inconclusive: 56.2 µM [inhibitor, partial curve, poor fit]. `CC(=O)OC1[C@H](Oc2c(O)c(C)c3c4c2[C@@H](C)CC[C@@H]4[C@@H](C)C[C@@H]3C=C(C)C)OC[C@@H](O)[C@@H]1O` (stereo not given in full) was tested, and the Potency was inconclusive: 79.4 µM [inhibitor, partial curve, poor fit]. `CC1CN(C(=O)Nc2ccc(C(=O)NCc3cccc(F)c3)cc2)c2ccccc2S1` (stereo not given) was tested, and the Potency was “inactive”. For `C=C(C)CCOC(=O)C(CC(=O)O)NCc1ccco1` (stereo not given), the Potency was “inactive”. For `C#CCOc1ccc(/C=C2/C(=O)ON=C2C)cc1Cl`, the Potency was “inactive”. In the case of `Cn1nc(-c2ccc(C(=O)Nc3ccc(F)cc3)cc2)c2ccccc2c1=O`, the Potency is reported as inconclusive: 50.1 µM [inhibitor, partial curve]. For `C=Cc1ccc(Cn2nc(-c3ccc(C)c(S(=O)(=O)N(CC)CC)c3)ccc2=O)cc1`, the Potency was “inactive”. `O=C(N/N=C/c1sc(N2CCOCC2)nc1-c1ccccc1)c1ccc(O)cc1` was tested, and the Potency was inconclusive: 89.1 µM [inhibitor, single point]. In the case of `N#C/C(=C/c1ccc(OCc2ccc(C(=O)O)cc2)c(Br)c1)c1cccc(F)c1`, the Potency is reported as inconclusive: 50.1 µM [inhibitor, partial curve]. With `CCc1nnc(SCC(=O)Nc2ccc(F)cc2F)c2cc3sc(C)cc3n12` the Potency was “inactive”. For `Cc1cccc(NC(=O)C2C(c3ccccc3)C2(Cl)Cl)c1` (stereo not given), the Potency was inconclusive: 50.1 µM [inhibitor, partial curve, poor fit]. In the case of `CN(C)S(=O)(=O)c1cccc(-n2sc3ccccc3c2=O)c1`, the Potency is reported as inconclusive: 89.1 µM [inhibitor, single point]. In the case of `Cc1cc(=O)oc2c(CN3CC(C)OC(C)C3)c(O)c(Cl)cc12` (stereo not given), the Potency is reported as “inactive”. With `COc1ccc(C(=O)OCCCc2cc3ccccc3c(=O)o2)cc1` the Potency was inconclusive: 56.2 µM [inhibitor, partial curve, poor fit]. With `Cc1ccc(CNC(=O)c2ccc(-n3cccc3)cc2)cc1` the Potency was inconclusive: 89.1 µM [inhibitor, single point]. For `COC(=O)COc1ccc(C2Nc3c(Cl)ccc(C(=O)O)c3C3C=CCC32)cc1` (stereo not given), the Potency was inconclusive: 25.1 µM [inhibitor, partial curve, poor fit]. With `COc1ccc(NC(=O)/C(C#N)=C/c2ccc(-c3ccc(Cl)c(C(=O)O)c3)o2)cc1` the Potency was inconclusive: 56.2 µM [inhibitor, partial curve, poor fit]. For `COc1cc2ncnc(NCc3cccs3)c2cc1OC`, the Potency was inconclusive: 79.4 µM [inhibitor, partial curve, poor fit]. In the case of `Cc1ccccc1CNC(=O)C1CCCN(c2nnc(C)c3c(C)n(-c4ccccc4)nc23)C1` (stereo not given), the Potency is reported as inconclusive: 50.1 µM [inhibitor, partial curve]. For `CC(=O)Nc1ccc(Nc2c3ccccc3nc3ccccc23)cc1`, the Potency was inconclusive: 28.2 µM [inhibitor, full curve, poor fit]. With `c1coc(CNc2ncnc3c2[nH]c2ccccc23)c1` the Potency was inconclusive: 89.1 µM [inhibitor, partial curve, poor fit]. In the case of `COc1ccc(S(=O)(=O)Nc2c(C)c(C)cc3c2ncn3C)cc1`, the Potency is reported as inconclusive: 100 µM [inhibitor, single point]. In the case of `Cc1ccc(NC(=O)CSc2nc(N)c3c4c(sc3n2)CSC(C)(C)C4)cc1`, the Potency is reported as “inactive”. With `COC(=O)c1cc(S(=O)(=O)N2CCN(c3cc(Cl)ccc3C)CC2)c[nH]1` the Potency was inconclusive: 89.1 µM [inhibitor, partial curve, poor fit]. For `Nc1ccc2ccccc2c1N=Nc1ccccc1`, the Potency was inconclusive: 89.1 µM [inhibitor, partial curve, poor fit]. In the case of `Cc1nc(S/C(=C/c2ccc(-c3ccc(C(=O)O)cc3)o2)C(=O)O)n[nH]1`, the Potency is reported as inconclusive: 39.8 µM [inhibitor, partial curve]. In the case of `COc1ccccc1CNC(=O)C1CCN(C2=NS(=O)(=O)C(c3ccc(C)c(C)c3)=C2C)CC1`, the Potency is reported as “inactive”. `c1ccc(-c2noc(CN3CCN(C(c4ccccc4)c4ccccc4)CC3)n2)cc1` was tested, and the Potency was inconclusive: 28.2 µM [inhibitor, single point]. `CCCCN=Cc1c(C)[nH]n(-c2ccccc2)c1=S` was tested, and the Potency was “inactive”. `Cc1ccc2c(c1)-c1c(cnn1CC(=O)N1CCN(c3cc(C)ccc3C)CC1)CO2` was tested, and the Potency was “inactive”. With `Nc1c(/C=C2/C=CC(=O)C(O)=C2)c(=O)nc2sc(CC(=O)N3CCOCC3)nn12` the Potency was active: 25.1 µM. For `Cc1ccc(C(C)C)c(OCc2ccc(C(=O)N/N=C/c3ccc(O)c(O)c3)cc2)c1`, the Potency was inconclusive: 79.4 µM [inhibitor, partial curve, poor fit]. With `COc1cc2nc(NC3CCN(C)CC3)nc(NC3CCN(C)CC3)c2cc1OC` the Potency was active: 44.7 µM. For `O=C(NCCc1ccccc1)c1ccc(CSc2nc3cccnc3n2Cc2ccccc2F)cc1`, the Potency was inconclusive: 56.2 µM [inhibitor, partial curve, poor fit]. For `Cc1nn(Cc2ccc(Cl)cc2)c(C)c1NC(=O)CCCn1nc([N+](=O)[O-])c(Cl)c1C`, the Potency was “inactive”. For `N#C/C(=C\c1ccc(OCc2ccc(F)cc2)cc1)C(=O)Nc1cccc(C(=O)O)c1`, the Potency was inconclusive: 35.5 µM [inhibitor, full curve]. For `COc1ccc(-c2c[n+]3c4n2CCCCC4=C(c2ccc(Br)cc2)C3)cc1`, the Potency was “inactive”. `O=C(Nc1ccc(O)cc1C(=O)O)c1ccc2c(c1)C(=O)N(Cc1ccco1)C2=O` was tested, and the Potency was inconclusive: 44.7 µM [inhibitor, partial curve, poor fit]. For `O=c1c(-c2ccc([N+](=O)[O-])cc2)coc2c(O)c(O)ccc12`, the Potency was inconclusive: 11.2 µM [inhibitor, full curve]. With `COC(=O)c1cccc(-n2sc3ccccc3c2=O)c1` the Potency was inconclusive: 89.1 µM [inhibitor, single point]. With `CN(CCO)c1ccc(/C=N/Nc2nncc3ccccc23)cc1` the Potency was inconclusive: 17.8 µM [inhibitor, full curve]. For `COc1ccc2noc3c2c1C(=O)c1ccccc1-3`, the Potency was inconclusive: 22.4 µM [inhibitor, full curve]. In the case of `COC(=O)Nc1c(-c2ccccc2)nc2ccccn12`, the Potency is reported as inconclusive: 89.1 µM [inhibitor, partial curve, poor fit]. `O=C(Nc1ccc([N+](=O)[O-])cc1Cl)c1cc(Cl)ccc1O` was tested, and the Potency was inconclusive: 4.23 µM [inhibitor, single point]. For `O=C(COC(=O)c1ccc(F)cc1Cl)NCc1ccco1`, the Potency was “inactive”. With `Cn1cnnc1SCC(=O)Nc1ncc([N+](=O)[O-])s1` the Potency was inconclusive: 79.4 µM [inhibitor, partial curve]. With `CSc1ccc(/C=C2\CCn3c2nc2cc(C(=O)O)ccc2c3=O)cc1` the Potency was inconclusive: 56.2 µM [inhibitor, partial curve, poor fit]. In the case of `Oc1c(C(c2ccccn2)N2CCCCC2)cc(Cl)c2cccnc12` (stereo not given), the Potency is reported as inconclusive: 44.7 µM [inhibitor, partial curve]. `COc1cc2[nH]c(=S)nc(NCCc3ccc(S(N)(=O)=O)cc3)c2cc1OC` was tested, and the Potency was inconclusive: 89.1 µM [inhibitor, single point]. `CCCCCCSc1cccc(-c2nc3ccccn3c2NCc2ccccc2)c1` was tested, and the Potency was inconclusive: 89.1 µM [inhibitor, partial curve, poor fit]. With `Brc1cccc[n+]1C/C=C/C[n+]1ccccc1Br` the Potency was “inactive”. `COc1ccc(CN2C(=O)c3cccc4cccc2c34)cc1F` was tested, and the Potency was “inactive”. For `O=C1C(Cc2ccccc2)Nc2ncnc(N3CCc4ccccc4C3)c2N1Cc1ccc(Cl)cc1` (stereo not given), the Potency was inconclusive: 44.7 µM [inhibitor, partial curve, poor fit]. With `CN(C(=O)COC(=O)c1cc(-c2ccco2)nc2ccccc12)C1CCS(=O)(=O)C1` (stereo not given) the Potency was active: 50.1 µM. `COc1cccc(-c2nc3c(c(C)nn3-c3ccccc3)c3cc(OC)c(OC)cc23)c1` was tested, and the Potency was “inactive”. In the case of `COc1ccc(S(=O)(=O)NCc2cccs2)cc1`, the Potency is reported as “inactive”. `COc1ccc(NC(=O)Nc2c(O)ccc3ccccc23)cc1` was tested, and the Potency was inconclusive: 22.4 µM [inhibitor, full curve]. `N=C1/C(=C/c2ccc(Br)o2)C(=O)N=C2SC(CC(=O)N3CCCC3)=NN12` was tested, and the Potency was inconclusive: 31.6 µM [inhibitor, full curve]. `CC(=C/c1ccc(C(C)C)cc1)/C=N/NC(=O)CSc1ccccn1` was tested, and the Potency was inconclusive: 14.1 µM [inhibitor, partial curve, poor fit]. With `Cc1c(-c2cccc(NC(=O)Nc3ccccc3)c2)nc2ncccn12` the Potency was inconclusive: 89.1 µM [inhibitor, partial curve, poor fit]. For `COc1cc2c(C(=O)N3CCOCC3)c(CSc3ccccc3)n(C)c2cc1Br`, the Potency was inconclusive: 11.2 µM [inhibitor, partial curve, poor fit]. With `O=C(c1ccc(F)cc1)c1ccc(-c2ccc(F)cc2)nc1` the Potency was inconclusive: 0.631 µM [inhibitor, full curve, poor fit]. For `c1ccc(-c2nccc(-c3ccc(-n4cnc5ccccc54)cc3)n2)cc1`, the Potency was inconclusive: 56.2 µM [inhibitor, partial curve].
